# From PubChem BioAssay AID1508642 (National Center for Advancing Translational Sciences (NCATS), 2021)
# The campaign covered roughly 43,000 compounds. About 200 (0.47%) were called active. About 12% were inconclusive and are not listed. Calls follow the shape of the dose curve; as a rule, active = well fitted cell-killing curve with a large enough effect; inconclusive = small, poorly fitted or top-dose-only effect, or effect the other way; inactive = flat fitted curve, though single readings scatter. Some of the results follow.
# Test: Cell viability qHTS assay in S16 Pmp22-F2sN cells; also: nearly all actives have a fitted effect of over 65% in size
# Details: S16 Pmp22-F2sN Schwann cells (luciferase reporters placed in the Pmp22 gene) viability, CellTiter-Glo, 24 h; series mostly up to 57.5 µM; activity change, negative = cytotoxicity: at the top concentration
# Procedure, shortened: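 S16 Schwann cells carrying the Pmp22-F2sN reporter, seeded in 1536-well format, were exposed to library compounds for 24 h at 37C. Viability was read as CellTiter-Glo luminescence after 15 min at room temperature.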
# % is scaled to controls: 0 for no effect and ±100 for the full control effect.
row,SMILES,"activity change, negative = cytotoxicity"
1,CCc1cccc(C)c1Nc1c(-c2cccc(O)c2)nc2nc(C)cc(C)n12,inactive: -10%
2,CCc1ccccc1NC(=O)CSc1ncc(S(=O)(=O)c2ccc(C(C)C)cc2)c(N)n1,inactive: -2.15%
3,Cc1ccc(CN(Cc2ccco2)C(=O)c2ccc(Cl)cc2)o1,inactive: -2.51%
4,CCc1ccc(-n2c(=O)c3c(C)c(C(=O)N(C)C)sc3n(Cc3ccccc3C#N)c2=O)cc1,inactive: -6.54%
5,CCOC(=O)c1c(C)sc(-c2c(-c3ccc(OC)c(F)c3)[nH]c3[nH]c(=O)[nH]c(=O)c23)c1O,inactive: -2.3%
6,CC1=C(C(=O)Nc2ccc(Cl)cc2)C(c2ccc(C(F)(F)F)cc2)n2nnnc2N1 (stereo not given),inactive: -6.5%
7,COc1ccc(-c2nc(SCC(=O)N3CCCCC3C)n[nH]2)cc1 (stereo not given),inactive: 0.441%
8,CCOC(=O)c1cc(-c2ccc(OC)cc2)n(CCC(=O)Nc2nc3ccc(OCC)cc3s2)c1C,inactive: -27.6%
9,CCN(CC)CCCNC(=O)CN1N=C(c2ccc(OC)cc2)CCC1=O,inactive: -6.52%
10,COc1cc(Cl)c(C)cc1NC(=O)Cn1ncc2c3ccccc3n(Cc3ccccc3)c2c1=O,inactive: 21.7%
11,CCc1ccc(CNC(=O)c2c(C)oc3ncn(CC(C)C)c(=O)c23)cc1,inactive: -2.48%
12,COc1ccc(C(=O)N2c3ccc(C)cc3C(C)(c3ccccc3)CC2(C)C)cc1 (stereo not given),inactive: -0.253%
13,CCCCNS(=O)(=O)c1ccc2nc(-c3cccnc3)cc(C(=O)NCCOC)c2c1,inactive: -3.24%
14,O=S(=O)(c1cccc(F)c1)N1CCC(Oc2ccc(-n3cnnn3)cc2)CC1,inactive: -18.4%
15,CC(C)c1ccc(OCC(O)CN2CCN(c3ccc(F)cc3)CC2)cc1 (stereo not given),inactive: -0.179%
16,COc1ccccc1CNC(=O)c1cc2c(s1)-c1ccccc1OC2,inactive: -8.01%
17,CCC(=O)N1c2ccc(S(=O)(=O)CCC(=O)Nc3ccc(Br)c(C)c3)cc2CC1C (stereo not given),inactive: -9.18%
18,CCN(Cc1ccccc1)C(=O)c1sc2nc3n(c(=O)c2c1C)CCCC3,inactive: 6.96%
19,Cc1ccc(Cl)cc1N1CCN(C(=O)CN2C(=O)CSc3c2c(C)nn3-c2ccccc2)CC1,inactive: 4.27%
20,O=C(NCc1cccs1)c1ccc(Cn2c(SCc3ccc(F)cc3)nc3cccnc32)cc1,inactive: -10.3%

row,SMILES,"activity change, negative = cytotoxicity"
1,COc1ccc(-c2cn3c(n2)sc2cc(C(=O)NCCc4ccc(OC)cc4OC)ccc23)cc1,inactive: 11.6%
2,CCc1ccc2c(c1)-c1ccccc1S(=O)(=O)N2CC(=O)N1CCCCC1,inactive: -8.28%
3,COCCNC(=O)Cn1c(=O)n(CCCCCC(=O)Nc2ccccc2)c(=O)c2sccc21,inactive: -22.5%
4,O=S(=O)(c1ccccc1)c1nnn2c1nc(NCc1ccccc1)c1sccc12,inactive: 23.3%
5,Cc1cccc2sc(N(CCCN(C)C)C(=O)COc3ccccc3)nc12,inactive: 4.58%
6,COC(=O)c1ccccc1NC(=O)Cn1c(=O)n(-c2cccc(C(F)(F)F)c2)c(=O)c2c(C)c(C)sc21,inactive: 0.489%
7,CCOc1ccc(N(CC)S(=O)(=O)N2CCCC(C(=O)NCCc3ccc(OC)cc3)C2)cc1 (stereo not given),inactive: 0.208%
8,Cc1ccc(S(=O)(=O)NCC2CCC(C(=O)NCCc3ccc(Cl)cc3)CC2)cc1 (stereo not given),inactive: 11.6%
9,Cc1ccc(C)c(N2CCN(C(=O)c3cc(S(=O)(=O)N4CCCCCC4)cn3C)CC2)c1,inactive: 3.85%
10,COCCCNC(=O)c1ccc(Cn2c(SCc3cccc(C)c3)nc3cccnc32)cc1,inactive: -22.4%
11,Cc1cc(C)c2c(n1)sc1c(=O)n(-c3cc(Cl)ccc3C)nnc12,inactive: 4.49%
12,CCOC(=O)C1CCCN(C(=O)c2nn(-c3ccc(C)cc3)c(=O)c3c2c2ccccc2n3C)C1 (stereo not given),inactive: -0.955%
13,CCCn1c(CCCNC(=O)c2ccccc2OC)nc2ccccc21,inactive: -6.73%
14,O=C(/C=C\c1ccccc1)NC1CC(=O)N(c2ccccc2)C1 (stereo not given),inactive: 6.28%
15,COc1ccc(CCNS(=O)(=O)c2ccc3c(c2)c(=O)n(C)c(=O)n3C)cc1OC,inactive: -6%
16,COc1ccc(OC)c(NC(=O)Cn2nc3c(cc2=O)CCCC3)c1,inactive: -1.09%
17,NS(=O)(=O)c1ccc(NC(=O)c2cc(-c3cccs3)nc3ccccc23)cc1,inactive: 4.31%
18,Cc1ccc(NC(=O)CCCc2nnc3n(C)c(=O)c4sccc4n23)cc1C,inactive: -4.83%
19,COc1ccc(NC(=O)C2=C(C)Nc3nc(SCc4ccc(C)cc4C)nn3C2c2cccc(OC)c2OC)cc1 (stereo not given),inactive: 15.5%
20,Cc1oc2ncnc(N3CCCCC3)c2c1C(=O)NCC1CCN(Cc2ccccc2F)CC1,inactive: -1.71%

row,SMILES,"activity change, negative = cytotoxicity"
1,Cc1ccc(CNC(=O)c2oc3ccc(S(=O)(=O)N4CCCC(C)C4)cc3c2C)cc1 (stereo not given),inactive: -7.58%
2,COc1ccccc1NC(=O)c1sc2nc(-c3cc4cc(Cl)ccc4oc3=O)[nH]c(=O)c2c1C,inactive: -3.38%
3,Cc1[nH]c(=O)[nH]c(=O)c1S(=O)(=O)Nc1cccc(Cl)c1C,inactive: -5.6%
4,CCOc1ccc(CNC(=O)Cn2nc(C)c3nn(-c4ccc(Cl)cc4)c(C)c3c2=O)cc1,inactive: -1.24%
5,COc1cc(NC(=O)Cn2c(=O)n(Cc3ccccc3)c(=O)c3oc4ccccc4c32)cc(OC)c1,inactive: -21.5%
6,CCOC(=O)c1c(S(=O)(=O)N2CCC(C(=O)Nc3ccc(C)cn3)CC2)c(C)n(C)c1C,inactive: 1.83%
7,CCn1c(SC)nc2c([nH]c3ccccc32)c1=O,inactive: -0.969%
8,COc1ccc(CNC(=O)c2ccc3c(c2)N=C(C)c2c(C)ccc(C)c2S3)cc1,inactive: 14.5%
9,Cc1cc(C)cc(NC(=O)CC(C)n2nc(C)cc2C)c1 (stereo not given),inactive: 1.78%
10,O=C(Cn1ccc2cc(S(=O)(=O)N3CCCC3)ccc21)NCc1ccc(Cl)cc1,inactive: 2.52%
11,CCN(CC)c1ccc(NC(=O)CN2CCN(S(=O)(=O)c3ccc(C(C)C)cc3)CC2)cc1,inactive: -26.4%
12,O=C(Nc1ccc(F)cc1)C1CCN(c2nc3ccccc3nc2C(F)(F)F)CC1,inactive: 12%
13,COc1ccc(-c2noc(CC(=O)N(C)c3ccccc3F)n2)cc1,inactive: 2.02%
14,CCOc1ccccc1CNc1ncnc2onc(-c3ccc(F)cc3)c12,inactive: -7.29%
15,CCCNC(=O)CN1C(=O)COc2ccc(S(=O)(=O)N3CCCC3)cc21,inactive: 0.0327%
16,Cc1nc(N2CCOCC2)c2c(C(=O)N3CCN(c4cc(Cl)ccc4C)CC3)c(C)oc2n1,inactive: 1.18%
17,O=C(CN1C(=O)C2CCCCN2c2ccc(C(=O)N3CCCC3)cc21)NCc1ccc(F)cc1 (stereo not given),inactive: 0.642%
18,COC(=O)c1ccc(C2CC(=O)Nc3c2c(C)nn3-c2nc(C)cc(C)n2)cc1 (stereo not given),inactive: 8.66%
19,O=C(Nc1ccc(S(=O)(=O)Nc2ncccn2)cc1)c1cccc(Cl)c1,inactive: 2.67%
20,COc1ccc(-n2cc(C(=O)NCCc3ccc(C)cc3)c3ccccc3c2=O)cc1,inactive: -1.94%
